Our source for the cytotoxicity call and growth inhibition call values is the antibiotic and cytotoxicity screens of Wong et al. (2023).

The subject of one experiment is HSkMC. Nature of the experiment: cytotoxicity call (relative viability < 0.9). Particulars: 10 µM.
The test system of a further experiment is HepG2. Description: cytotoxicity call (relative viability < 0.9). The following applies: 10 µM.
In the next experiment the test system is S. aureus RN4220. Nature of the experiment: growth inhibition call (relative growth <= 0.2). The following applies: 50 µM.

SMILES strings stand for the structures. The list shows a part of the results.

As to `C[C@@H]1CN([C@H](C)CO)C(=O)c2cc(NC(=O)Nc3ccc(C(F)(F)F)cc3)ccc2O[C@H]1CN(C)CC1CCCCC1`, in the experiment on HSkMC, the cytotoxicity call was “inactive”. Besides, the cytotoxicity call in the experiment on HepG2 is “active”. The growth inhibition call with S. aureus RN4220 was “inactive”.

As for `COc1ccc(CNC(=O)C[C@H]2C[C@@H]3c4cc(NC(=O)NC5CCCC5)ccc4O[C@@H]3[C@@H](CO)O2)cc1`, the cytotoxicity call with HSkMC and with HepG2 was “inactive” throughout. Besides, the growth inhibition call in the experiment on S. aureus RN4220 was “inactive”.

Take `C[C@@H]1CN([C@@H](C)CO)C(=O)c2cc(C#Cc3ccccc3F)cnc2O[C@@H]1CN(C)C(=O)Cc1ccncc1`: the cytotoxicity call with HSkMC and in the experiment with HepG2 was “inactive” in each case. In addition, the growth inhibition call with S. aureus RN4220 was “inactive”.

As to `Cc1ccc(S(=O)(=O)Nc2ccc3c(c2)C(=O)N([C@H](C)CO)C[C@@H](C)[C@H](CN(C)S(C)(=O)=O)O3)cc1`, the cytotoxicity call in the experiment with HSkMC and in the experiment on HepG2 was “inactive” each time. The growth inhibition call in the experiment on S. aureus RN4220 was “inactive”.

Consider `O=C(C[C@H]1C=C[C@H](NC(=O)Nc2ccc3c(c2)OCO3)[C@H](CO)O1)NCCCN1CCOCC1`, for which the cytotoxicity call in the experiment on HSkMC and in the experiment with HepG2 was “inactive” in each case. Besides, the growth inhibition call with S. aureus RN4220 was “inactive”.

`C[C@H]1CN([C@@H](C)CO)C(=O)Cc2cc(NC(=O)Nc3ccc(C(F)(F)F)cc3)ccc2O[C@@H]1CN(C)Cc1ccncc1`: the cytotoxicity call in the experiment on HSkMC was “inactive”. Further, the cytotoxicity call with HepG2 was “active”. The growth inhibition call with S. aureus RN4220 was “inactive”.

Consider `C#CCCCCCCCCCCCC(O)CC(O)COC(C)=O.C=CCCCCCCCCCCCC(O)CC(O)COC(C)=O` (stereo not given), for which the cytotoxicity call with HSkMC and with HepG2 was “inactive” in each case. Further, the growth inhibition call with S. aureus RN4220 was “inactive”.

For the compound `COc1ccc(NC(=O)N(C)C[C@@H]2OCCCC[C@@H](C)Oc3ccc(NS(=O)(=O)c4ccc(Cl)cc4)cc3C(=O)N([C@H](C)CO)C[C@@H]2C)cc1`, the cytotoxicity call in the experiment with HSkMC and with HepG2 was “inactive” each time. Besides, the growth inhibition call in the experiment on S. aureus RN4220 was “inactive”.

As for `C[C@@H]1CN([C@H](C)CO)C(=O)Cc2cc(NC(=O)NC3CCCCC3)ccc2O[C@@H]1CN(C)S(=O)(=O)c1cn(C)cn1`, the cytotoxicity call in the experiment with HSkMC and in the experiment with HepG2 was “inactive” in each case. In addition, the growth inhibition call in the experiment on S. aureus RN4220 is “inactive”.

As to `C[C@@H]1CN([C@H](C)CO)S(=O)(=O)c2ccc(C#CC3CC3)cc2O[C@@H]1CN(C)C(=O)Cc1ccncc1`, the cytotoxicity call in the experiment on HSkMC and with HepG2 was “inactive” throughout. Further, the growth inhibition call with S. aureus RN4220 was “inactive”.

`CC(C)C[C@H]1NC(=O)[C@@H](C)NC(=O)[C@@]23C(=O)N[C@@H](Cc4ccccc4)[C@H]2[C@H](C)[C@@]2(C)O[C@H]2[C@@H]3/C=C/C/C=C\CNC1=O`: the cytotoxicity call with HSkMC and with HepG2 was “inactive” each time. Besides, the growth inhibition call in the experiment with S. aureus RN4220 is “inactive”.

For the compound `C[C@H]1CN([C@@H](C)CO)C(=O)c2cc(NS(=O)(=O)c3ccc(Cl)cc3)ccc2O[C@H]1CN(C)S(C)(=O)=O`, the cytotoxicity call in the experiment with HSkMC and in the experiment with HepG2 was “inactive” throughout. Also, the growth inhibition call with S. aureus RN4220 is “inactive”.

With `COc1ccc2c3c(n(c2c1)C)[C@H](CO)N(C[C@]13CCN(CC1)Cc1ccncc1)C(=O)CN1CCOCC1`, the cytotoxicity call in the experiment with HSkMC and with HepG2 was “inactive” throughout. The growth inhibition call in the experiment with S. aureus RN4220 is “inactive”.

`C[C@H]1CN([C@@H](C)CO)C(=O)c2cc(C#Cc3ccccc3F)cnc2O[C@H]1CN(C)C(=O)Cc1cccnc1`: the cytotoxicity call in the experiment on HSkMC and in the experiment on HepG2 was “inactive” throughout. The growth inhibition call in the experiment on S. aureus RN4220 is “inactive”.

Regarding `C[C@@H]1CCCCO[C@H](CN(C)C(=O)Nc2ccc(C(F)(F)F)cc2)[C@@H](C)CN([C@@H](C)CO)C(=O)c2cc(NS(=O)(=O)c3cccs3)ccc2O1`, the cytotoxicity call with HSkMC is “inactive”. Besides, in the experiment with HepG2, the cytotoxicity call was “active”. Besides, the growth inhibition call with S. aureus RN4220 was “inactive”.

Take `COc1ccc(NC(=O)Nc2ccc3c(c2)C(=O)N([C@@H](C)CO)C[C@@H](C)[C@H](CN(C)C(=O)c2ccccc2)OCCCC[C@@H](C)O3)cc1`: the cytotoxicity call in the experiment with HSkMC and with HepG2 was “inactive” throughout. For the same compound, the growth inhibition call in the experiment with S. aureus RN4220 is “inactive”.

Take `Cc1ccc(S(=O)(=O)Nc2cccc3c2O[C@@H](CN(C)Cc2ccc(-c4ccccc4)cc2)[C@H](C)CN([C@@H](C)CO)C3=O)cc1`: the cytotoxicity call in the experiment on HSkMC and with HepG2 was “inactive” in each case. In addition, the growth inhibition call in the experiment on S. aureus RN4220 is “inactive”.

In the case of `C[C@@H]1CCCCO[C@H](CN(C)S(=O)(=O)c2ccc(Cl)cc2)[C@@H](C)CN([C@H](C)CO)C(=O)c2cc(NC(=O)Nc3ccc(C(F)(F)F)cc3)ccc2O1`, the cytotoxicity call in the experiment with HSkMC and in the experiment with HepG2 was “active” each time. In the experiment on S. aureus RN4220, the growth inhibition call was “inactive”.

Consider `CC(C)(C)[S@@](=O)N1Cc2cc(C(=O)N[C@H]3CCN(Cc4ccccc4)C3)nc(-c3cccc(-c4cccnc4)c3)c2[C@H]1CCO`, for which the cytotoxicity call in the experiment with HSkMC and in the experiment on HepG2 was “inactive” throughout. The growth inhibition call with S. aureus RN4220 was “inactive”.

As for `C[C@H](CO)N1C[C@H](C)[C@H](CN(C)C(=O)Nc2ccccc2)Oc2ccc(NC(=O)CCCN(C)C)cc2C1=O`, the cytotoxicity call in the experiment on HSkMC (human skeletal muscle cells) and in the experiment on HepG2 was “inactive” throughout. For the same compound, in the experiment with S. aureus RN4220, the growth inhibition call was “inactive”.

Take `CC(C)NC(=O)Nc1ccc2c(c1)C(=O)N([C@H](C)CO)C[C@H](C)[C@H](CN(C)Cc1ccc(-c3ccccc3)cc1)O2`: the cytotoxicity call in the experiment with HSkMC and in the experiment on HepG2 was “inactive” in each case. In the experiment on S. aureus RN4220, the growth inhibition call was “inactive”.

For `CN1C(=O)c2cc(NC(=O)C3CCCC3)ccc2OC[C@H]2O[C@@H](CC(=O)NCCc3ccncc3)CC[C@@H]21`, the cytotoxicity call with HSkMC and in the experiment on HepG2 was “inactive” in each case. For the same compound, in the experiment with S. aureus RN4220, the growth inhibition call was “inactive”.

Consider `C[C@@H]1CN([C@@H](C)CO)C(=O)c2cccc(NC(=O)Nc3ccc(F)cc3)c2O[C@H]1CN(C)Cc1ccc(C(=O)Nc2ccccc2N)cc1`, for which the cytotoxicity call with HSkMC and in the experiment with HepG2 was “inactive” each time. Moreover, the growth inhibition call in the experiment with S. aureus RN4220 is “inactive”.

As to `COc1ccc(S(=O)(=O)N(C)C[C@@H]2OCCCC[C@@H](C)Oc3ccc(NC(=O)NC4CCCCC4)cc3C(=O)N([C@@H](C)CO)C[C@@H]2C)cc1`, the cytotoxicity call in the experiment with HSkMC and in the experiment with HepG2 was “inactive” in each case. Besides, the growth inhibition call in the experiment on S. aureus RN4220 was “inactive”.

For the compound `Cc1noc(C)c1S(=O)(=O)Nc1ccc2c(c1)C(=O)N([C@H](C)CO)C[C@H](C)[C@H](CN(C)S(=O)(=O)c1ccc(F)cc1)O2`, the cytotoxicity call in the experiment with HSkMC and with HepG2 was “inactive” in each case. In the experiment on S. aureus RN4220, the growth inhibition call was “inactive”.
